Molecular target: PD-L1 molecules (Sino, Cat #10084-H08H) (UniProt Q9NZQ7 fragment)
Assay: SPR, Biacore T200; PD-1 Fc fusion fixed on CM5 chip, PD-L1 injected at 3.125-100 nM

UniProt Q9NZQ7, sequence (Q9NZQ7 19-238 limits assumed): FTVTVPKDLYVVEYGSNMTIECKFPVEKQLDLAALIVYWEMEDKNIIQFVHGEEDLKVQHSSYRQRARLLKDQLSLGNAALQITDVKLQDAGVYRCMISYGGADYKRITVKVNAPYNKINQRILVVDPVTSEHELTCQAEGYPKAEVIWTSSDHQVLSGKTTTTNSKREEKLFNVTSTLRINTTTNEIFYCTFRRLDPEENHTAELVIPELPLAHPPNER

Kd: 42.9 nM
koff: 0.0102 s⁻¹
kon: 237000 M⁻¹ s⁻¹
B1: wild-type PD-1 Fc fusion protein (Fc fusion)
chain: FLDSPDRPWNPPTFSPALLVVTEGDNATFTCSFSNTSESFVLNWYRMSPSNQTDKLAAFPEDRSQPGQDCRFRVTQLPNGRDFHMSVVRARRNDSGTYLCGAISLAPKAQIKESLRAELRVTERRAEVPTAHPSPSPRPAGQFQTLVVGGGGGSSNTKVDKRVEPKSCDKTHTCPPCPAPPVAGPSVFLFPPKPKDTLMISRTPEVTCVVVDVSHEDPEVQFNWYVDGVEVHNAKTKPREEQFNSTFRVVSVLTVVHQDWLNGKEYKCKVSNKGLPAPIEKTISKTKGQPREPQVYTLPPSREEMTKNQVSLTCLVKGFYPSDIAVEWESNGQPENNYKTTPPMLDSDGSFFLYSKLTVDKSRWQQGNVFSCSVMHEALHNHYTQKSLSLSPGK
notes: Built from plasmid 'PD1-G4S linker-Fc'; the human PD-1 signal peptide ([…], […]) is left out; also called PD-1 wild type

Source: US20220073586A1 (EUTILEX, published 2022)
